± gives the standard deviation of the averaged measurements. This is one part of the list.
test system: PfAP2-LT AP2 domain (GST-tagged); test: gcPBM binding intensity (ln(normalized median fluorescence intensity)); higher = stronger DNA binding
In short: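 For binding intensity, the highest Masliner-normalised natural-log median intensity across replicate spots of either probe orientation was taken. Protein bound to the array was stained with Alexa488 anti-GST antibody and scanned at 488 nm. The protein, GST-tagged P. falciparum DNA-binding domains from E. coli at about 25 μg on average, had been applied for 1 h to an Agilent 4 × 180k array of primer-extended double-stranded 36-bp intergenic genomic probes and negative controls.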

| Sequence | gcPBM binding intensity (ln) |
| --- | --- |
| AATATATAAATTAATACATGCACATATAGAAAGGGA [TGCATGCA_site472] | 9.23 ± 0.49 |
| CTTTTTACTTAATACACACACACACTAGAAAAAAAA [CACACA_site4680] | 9.59 ± 0.16 |
| TATCAAAATTAGTATACACACAAAATTATTCAAATA [CACACA_site2232] | 8.78 ± 0.52 |
| TAAAAGGAAAAAAAAGCACACACAATATTACTTGAA [CACACA_site8831] | 9.25 ± 0.41 |
| TATACATATAAATTGTGTACACATATATATATATTT [XGTACX_site7875] | 8.96 ± 0.39 |
| AAAAAAAAAAAAAGGTGTACATAAGTAAATTCATAT [XGTACX_site4206] | 8.87 ± 0.56 |
| AACCAATATGTGTATACACACATAAATATAAATATA [CACACA_site7729] | 9.43 ± 0.45 |
| CTTTTCTTTTTTTTTTGTACATAAAATTATTCCTTA [XGTACX_site3924] | 8.64 ± 0.59 |
| TTTTGTTGCTCTTTTTTTTTTTTTTTTAACTGTATG [CACACA_negctrl_site1072] | 8.74 ± 0.59 |
| AATATAGTCACACATACACACATATAGATTTATATA [CACACA_site7223] | 9.27 ± 0.4 |
| TTATTTTGTTTTAAAAGTACACACTTTTAATTAGAT [XGTACX_site2271] | 8.66 ± 0.41 |
| ATAATAAGCAAACACACACACACAAAAAAAAAAAAA [CACACA_site720] | 9.92 ± 0.58 |
| TATATAAACACGTACACACACATATAGGTATTTATA [CACACA_site7615] | 9.47 ± 0.36 |
| ACAGAATACATATACACACATACAAAAAAGTGCATA [CACACA_site987] | 9.29 ± 0.32 |
| CATTATGTTGTAAATGCACACATACATATACACAGT [CACACA_site8990] | 9.23 ± 0.33 |
| TCATACTGTATATTTTGTACTTATATATATATTATA [XGTACX_site6136] | 8.98 ± 0.44 |
| TTTGCTTCCAAAAGTCGTACAAAAAATATTAAATAT [XGTACX_site4171] | 8.32 ± 0.37 |
| TACAAAAGCGATACGGCACACATTTCCTGTTTAAAT [CACACA_site2746] | 9.09 ± 0.37 |
| AAAAGATTGCTCCGCATGCACCTCCAAAAGTTCCTT [GTGCAC_site9993] | 8.7 ± 0.33 |
| TATTTATATTTATATACACACATACATATTTATATT [CACACA_site6535] | 9.1 ± 0.4 |
| ATTGTGTTAATGAAATGTACATTTTCTCTACGTTAA [XGTACX_site1322] | 8.81 ± 0.44 |
| AATATTATGTATAACCGTACATTATATATATAATAA [XGTACX_site1594] | 8.68 ± 0.42 |

| Sequence | gcPBM binding intensity (ln) |
| --- | --- |
| GTGTAAAGGTATTATTGTATTATTCAAAATAAAAAA [CACACA_negctrl_site637] | 8.57 ± 0.5 |
| ATTAAAATAATTTAATTTCTTAGACACAATTTGTAA [GTGCAC_negctrl_site331] | 8.19 ± 0.45 |
| TTAAACTTGTTTTGGATGCACTATATAATTCATTTT [GTGCAC_site9549] | 8.62 ± 0.54 |
| TCCTACATATTATAGTGTACATTTTCATGTTCATAT [XGTACX_site4308] | 9.03 ± 0.4 |
| AAGTATTATATATTTTGTACATATATAAAACCACAA [XGTACX_site5508] | 8.63 ± 0.39 |
| TATTTTGTAATAATTACACACGGAATTATAACAGAA [CACACA_site2355] | 8.85 ± 0.34 |
| TCTTAATTTGTTATATGTACATAATATAATTGTATA [XGTACX_site5184] | 8.77 ± 0.35 |
| TTATATTAATAAAAAGAAAATCATTTTTTCTTTTAT [CACACA_negctrl_site1595] | 8.05 ± 0.47 |
| ATATATATATTTATATTTATATGTAAATATCAACGT [TGCATGCA_negctrl_site32] | 8.77 ± 0.4 |
| TATATTAATAATAAGTGTACATATATATATATTTTT [XGTACX_site288] | 8.71 ± 0.36 |
| AATATATAGAGAGATATGCACACTGTATGAATGCAC [CACACA_site2677] | 9.04 ± 0.42 |
| TATTTTTTCTTTCATTGTACTTTTTTTTTGTTTTGT [XGTACX_site4081] | 8.9 ± 0.66 |
| ATTTGTAAAAAATTCATACACACGTCTTATTTTTAA [CACACA_site1390] | 9.15 ± 0.35 |
| AATGAGAAATATAATTGTACATATATTTATTTTCAT [XGTACX_site3669] | 8.62 ± 0.38 |
| TATCCATTTCTTTATGTGCACATTAAATATATTTGT | 9.06 ± 0.52 |
| AATACTATTATTATTGCACACTTATTATCCCTCGGA [CACACA_site4262] | 9.05 ± 0.43 |
| TATAAAAATATTTCTACACACATTAATATATATATA [CACACA_site1150] | 8.8 ± 0.46 |
| CAAAAGGATAGGCACACACACACACCCATATATATA [CACACA_site2199] | 10.2 ± 0.23 |
| AATATGTCTATATTTTTTATATGGAAATATTATAAA [GTGCAC_negctrl_site700] | 8.1 ± 0.31 |
| TTTTTTTTTTTTTTTTTTTTTTTATCTATTATTTAT [XGTACX_negctrl_site496] | 8.26 ± 0.24 |
| AAACAAAAAATTTAAAGTACAAAAATTATGATTGTT [XGTACX_site465] | 8.7 ± 0.42 |
| AAAAAATTAATATTGACACACATTTTTAAGAATAAT [CACACA_site239] | 8.68 ± 0.4 |

| Sequence | gcPBM binding intensity (ln) |
| --- | --- |
| AATGAATATATTTATTGTACATATATGAATATTGCA [XGTACX_site8689] | 8.63 ± 0.43 |
| ATTTTTTTATTTTTGTGTACTTATAAGAATATTAAT [XGTACX_site4850] | 8.72 ± 0.43 |
| AAAAAAAAAAAAAAAAGTACAAAAAGGAGAAAGATA [XGTACX_site7862] | 8.71 ± 0.52 |
| TATATATATATATATAGTACGCACACATAGTTGCAA [XGTACX_site5875] | 9.6 ± 0.014 |
| TATTTTTTATGATTAACACACACACTAATAAAAAAA [CACACA_site9370] | 9.12 ± 0.32 |
| ATTCTTACTAATATCGCACACACATATGTAGACGGG [CACACA_site88] | 9.56 ± 0.3 |
| AACAAGTTGCATGGTGCACACATGTATATATATCTA [CACACA_site2548] | 9.16 ± 0.47 |
| AAAATGTATGTAGTCTGTACAAATACTCTATAAATA [XGTACX_site6475] | 8.74 ± 0.52 |
| TACAATTTTACTCATAAACACACATATATATGTTAT [CACACA_site9031] | 8.97 ± 0.38 |
| AGGTTTATAAAAAAAAAAAAAAAAAAAAAAAAAAAA [GTGCAC_negctrl_site113] | 7.96 ± 0.32 |
| ACCCAGTGTATTCATAGTACACGCTCATATATTATC [XGTACX_site423] | 9.01 ± 0.39 |
| CACAAAGGTCTGAAATTTTAGGGGTGCCTGGGACTA [CACACA_negctrl_site681] | 8.51 ± 0.35 |
| AATATTTAAAACATATGTACTGAAAAACAATTGGAC [XGTACX_site6360] | 8.94 ± 0.46 |
| ACAAGATAATAGAGAAGTACTAATAAACATACACAA [XGTACX_site6617] | 8.97 ± 0.53 |
| AATATAAAATCAAGAAATTAAAAAAAAACAGAAAAC [CACACA_negctrl_site1004] | 8.89 ± 0.52 |
| TCATAAAAGATTAAGTGTACATGTGCTACTCTTATA [XGTACX_site6255] | 8.7 ± 0.47 |
| TATATATATATATGTGCACACCAATTGTATGTAATA [CACACA_site3888] | 9.8 ± 0.23 |
| ATTTTAAATTTATCTGTGCACAGTATTATATAAGCA [GTGCAC_site9806] | 8.77 ± 0.46 |
| TATGTTCCTTTTTGTTGTACTGAAAAATTATGTTCA [XGTACX_site3981] | 8.73 ± 0.42 |
| ATAATATAAATTAATTTACACACTAATAAATATATA [CACACA_site9259] | 8.71 ± 0.4 |
| GAGAGAGAAATATGCACACATAAGGGAAATAAATAA [CACACA_site1153] | 9.28 ± 0.47 |
| TTTTGATGCTTTAAATGTACAAGGGTTCTTATGAAA [XGTACX_site831] | 8.25 ± 0.38 |

| Sequence | gcPBM binding intensity (ln) |
| --- | --- |
| GAAAAAAAAAGTTAAGCACACACATGAATAAATAAT [CACACA_site8179] | 9.33 ± 0.42 |
| AAAAAAAAAAAATAGAAAAAAAAATAAAATAAAAAA [CACACA_negctrl_site562] | 8.46 ± 0.71 |
| TGTATATAATTTATATGTACATATATTTTATTTTGT [XGTACX_site1905] | 8.76 ± 0.57 |
| TGTTAACCACAAAAATAAAATAAAATAAAAATAATA [XGTACX_negctrl_site535] | 8.54 ± 0.52 |
| ATTATGCACGGACACACACACACACCCCTAAAAAAT [CACACA_site5426] | 10.1 ± 0.32 |
| TGATAAATATTATGTTGTACTTTCTGCCCTTCACAT [XGTACX_site5168] | 8.96 ± 0.6 |
| TATGCTATTATATATGTACACACCAATTTATTTATA [CACACA_site3918] | 8.98 ± 0.38 |
| TTTCCCATAGGAAAAACACACATATATTATAGATAA [CACACA_site7019] | 8.6 ± 0.49 |
| AAAACATATTTTAAAAGTACTTGAAAAAAAATTTTC [XGTACX_site3940] | 8.43 ± 0.45 |
| AAACCAAAAATAACACGTACAAAAATAAAAAGTATA [XGTACX_site4261] | 9.18 ± 0.52 |
| GAGAGAGAAATAAAAAGTACATACATATATATACAT [XGTACX_site2267] | 8.84 ± 0.58 |
| AAAAAAAACAGACACATACACACAAAAATGTTATAA [CACACA_site82] | 9.24 ± 0.52 |
| ACCATTTTTATGTATAAACACACGTACCCGCACTAA [CACACA_site1604] | 9.04 ± 0.46 |
| TGGAGATTTTTAAAGACACACAGGTAAGAATAATAA [CACACA_site1582] | 8.77 ± 0.47 |
| TTATACCTATATTTAACACACATTTGATAAAGTGCC [CACACA_site6732] | 8.85 ± 0.47 |
| AAAAAATTTGTTTATTGTACAGAAAGAATTATTATA [XGTACX_site6549] | 8.34 ± 0.47 |
| TTGTAGGTAAATATGTGTACGCATTATTATTCTTAA [XGTACX_site216] | 8.7 ± 0.45 |
| AATATAAACACAAACACACACATATAGATTTATATA [CACACA_site6263] | 9.53 ± 0.35 |
| CACAATGGTTTATATACACACTGTTGCAAATTCTTC [CACACA_site5659] | 8.97 ± 0.35 |
| AATATATAAATTGACACACACATATATACCTATATA [CACACA_site4803] | 9.35 ± 0.29 |
| ACATATATATATATATATATATATATATATAGATAG [CACACA_negctrl_site783] | 9.49 ± 0.28 |
| AAAACTAAATGTTATTCGCACACGGAATTTATTTAA [CACACA_site9221] | 8.94 ± 0.38 |

— the supplement of paper PMC11417369
